In PubChem BioAssay AID504332 (National Center for Advancing Translational Sciences (NCATS), 2011):
In all, about 350,000 compounds went through this assay and about 31,000 (8.9%) were called active. Inconclusive results, whose numbers are uncertain, are shown with a selection of clear calls. The call rests on the fitted dose curve; in most records, active means well fitted inhibition curve with a large enough effect; inconclusive means small, poorly fitted or top-dose-only effect; inactive means no such curve, though single readings can be large or run the other way. Potencies beside an inconclusive call are fits to weak or partial responses and may not hold up.

These compounds were tested against Histone-lysine N-methyltransferase EHMT2 (Homo sapiens) (UniProt Q96KQ7) (assay: qHTS Assay for Inhibitors of Histone Lysine Methyltransferase G9a). Settings: G9a H3K9 monomethylation, AlphaScreen, 2 h; activity, negative = inhibition: at 59 µM (top of the series) unless noted.
Method in brief: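 Compounds were preincubated with 20 nM G9a for 15 min, after which biotinylated H3K9 peptide (500 nM) and SAM (20 uM) started a 2 h room-temperature reaction. Monomethylated product was quantified by antibody-based AlphaScreen chemiluminescence.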
Further: nearly all actives have a fitted effect of over 75% in size.
On the % scale 0 is the no-effect control and ±100 the full control effect; potency means the concentration at half of the fitted maximal effect; tags describe the fitted curve by direction and shape.

UniProt Q96KQ7, sequence (Q96KQ7 whole entry, looked up): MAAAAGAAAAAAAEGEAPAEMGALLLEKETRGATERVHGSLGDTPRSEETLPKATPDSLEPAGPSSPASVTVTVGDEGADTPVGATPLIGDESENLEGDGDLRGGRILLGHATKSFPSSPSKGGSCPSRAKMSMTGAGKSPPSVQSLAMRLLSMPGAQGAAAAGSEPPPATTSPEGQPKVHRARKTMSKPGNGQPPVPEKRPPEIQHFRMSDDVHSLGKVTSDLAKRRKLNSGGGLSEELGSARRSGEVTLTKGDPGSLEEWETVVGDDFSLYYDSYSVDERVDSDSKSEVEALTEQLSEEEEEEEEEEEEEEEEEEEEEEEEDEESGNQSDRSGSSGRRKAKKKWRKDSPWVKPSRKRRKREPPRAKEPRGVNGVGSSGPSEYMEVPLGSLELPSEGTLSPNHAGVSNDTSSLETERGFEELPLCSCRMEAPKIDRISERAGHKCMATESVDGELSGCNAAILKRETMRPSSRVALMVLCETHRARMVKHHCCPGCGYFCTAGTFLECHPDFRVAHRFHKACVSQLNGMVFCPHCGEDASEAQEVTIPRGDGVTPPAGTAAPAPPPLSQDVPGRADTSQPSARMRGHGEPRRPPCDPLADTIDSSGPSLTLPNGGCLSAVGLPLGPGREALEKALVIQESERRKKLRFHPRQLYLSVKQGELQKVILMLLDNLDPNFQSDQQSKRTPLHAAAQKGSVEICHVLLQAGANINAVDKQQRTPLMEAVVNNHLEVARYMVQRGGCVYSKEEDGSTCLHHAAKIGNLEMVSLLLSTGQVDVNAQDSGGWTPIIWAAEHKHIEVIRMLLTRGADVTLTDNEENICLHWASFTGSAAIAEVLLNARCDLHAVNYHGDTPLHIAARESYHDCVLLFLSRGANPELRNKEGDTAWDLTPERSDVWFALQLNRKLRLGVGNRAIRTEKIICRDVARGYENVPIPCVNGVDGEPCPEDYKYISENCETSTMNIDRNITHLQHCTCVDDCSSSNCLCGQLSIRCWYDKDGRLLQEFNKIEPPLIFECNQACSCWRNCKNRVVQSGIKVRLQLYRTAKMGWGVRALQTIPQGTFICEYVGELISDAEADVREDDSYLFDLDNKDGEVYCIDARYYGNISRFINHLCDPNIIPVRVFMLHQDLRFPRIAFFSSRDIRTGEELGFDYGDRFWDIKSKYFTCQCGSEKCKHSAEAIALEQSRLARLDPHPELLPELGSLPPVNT

SMILES	Potency	activity, negative = inhibition
Cc1ccc(C(=O)CC2(O)C(=O)N(CCc3ccccc3)c3ccc(Br)cc32)o1 (stereo unspecified)	inconclusive: 1.26 µM [inhibitor, partial curve, poor fit]	
CN(C)CCN(Cc1ccco1)S(=O)(=O)c1ccc(-c2ccc(=O)[nH]n2)s1	inconclusive: 20 µM [inhibitor, partial curve, poor fit]	
COc1ccc(OCCCC(=O)N(C)CC(=O)Nc2c(C)cccc2C)cc1	inconclusive: 79.4 µM [inhibitor, single point]	
Cc1ccc(C(=O)CSc2nccn2-c2ccccc2)cc1	active: 31.6 µM	
COc1cc(C)c(NC(=O)COc2cccc3c2OC(C)(C)C3)cc1OC	inconclusive: 3.98 µM [inhibitor, single point]	
O=C(CSC(=S)N1CCOCC1)c1ccccc1	active: 7.08 µM	
CCN(c1ccccc1)S(=O)(=O)c1ccc(Cl)c(NC(=O)CSc2n[nH]c(N)n2)c1	inconclusive: 89.1 µM [inhibitor, single point]	
CCOC1OC2C(CO)OC(n3cnc4c(N)ncnc43)C2O1 (stereo unspecified)	inconclusive: 89.1 µM [inhibitor, single point]	
CCc1ccccc1-n1c(-c2ccncc2)n[nH]c1=S	active: 5.62 µM	
O=c1[nH]c(SCc2ccc(F)cc2)nc2c1CCCC2	inconclusive: 35.5 µM [inhibitor, partial curve, poor fit]	
Cc1cc(C)nc(SC2CCCCC2NS(=O)(=O)c2ccc(Cl)cc2)n1 (stereo unspecified)	inconclusive: 22.4 µM [inhibitor, single point]	
Cc1c(C(=O)NNC(=S)Nc2ccc(S(N)(=O)=O)cc2)oc2ccccc12	active: 11.2 µM	
CC1CN(C(=O)N2CCC(C(=O)NC3CCCCCC3)CC2)c2cc(Cl)ccc2O1 (stereo unspecified)	inconclusive: 10 µM [inhibitor, partial curve, poor fit]	
N#CC(c1nc2ccccc2nc1N1CCCC1)S(=O)(=O)c1ccccc1 (stereo unspecified)	inconclusive: 4.47 µM [inhibitor, single point]	
S=C(Nc1ccc2c(c1)OCO2)N1CCN(Cc2ccco2)CC1		inactive: 0.116% [at 102 µM]
C=CCn1c(SCC(=O)NCCCO)nc2sc3c(c2c1=O)CCC3		inactive: 29.7% [at 102 µM]
CC1=CC(C)(C)Nc2ccc(OC(=O)C(Cc3ccccc3)N3C(=O)c4ccccc4C3=O)cc21 (stereo unspecified)	inconclusive: 31.6 µM [inhibitor, full curve]	
Cc1ccc(S(=O)(=O)N2CCCC2)cc1C(=O)O	inconclusive: 100 µM [inhibitor, partial curve, poor fit]	
CN(C)CCCn1c(NCc2ccc3c(c2)OCO3)nc2ccccc21	inconclusive: 70.8 µM [inhibitor, single point]	
COc1ccc2c(c1)C(=O)N(c1ccccc1C)C(=O)C2(C)C		inactive: 4.57% [at 102 µM]
CCC(=O)N1CCc2cc(Br)cc(S(=O)(=O)N3CCN(c4ccccc4)CC3)c21	inconclusive: 10 µM [inhibitor, partial curve, poor fit]	
NC(=O)c1nc(C(=O)N2CCN(c3ccccc3)CC2)c2ccccc2n1		inactive: 38.4% [at 2.33 µM]
Cc1ccc(C(C)C)c(OCCn2cc(C(=O)c3ccco3)c3ccccc32)c1		inactive: -0.647%
Cc1cc(C(=O)N/N=C/c2cc(N=Nc3ccccc3)ccc2O)n[nH]1	active: 50.1 µM	

SMILES	Potency	activity, negative = inhibition
CCN(CC)S(=O)(=O)c1ccc(C(=O)Oc2cc(C)[nH]c(=O)c2[N+](=O)[O-])cc1	inconclusive: 31.6 µM [inhibitor, partial curve, poor fit]	
COc1ccc(CCNc2oc(-c3ccc(OC)c(OC)c3)nc2C#N)cc1	inconclusive: 39.8 µM [inhibitor, single point]	
CCc1ccc2[nH]c(=O)c(CN(CCCN3CCOCC3)C(=O)Nc3ccc(F)cc3)cc2c1		inactive: -38.1% [at 2.33 µM]
CCOc1ccc(-c2n[nH]c3c2C(c2ccccc2OC)N(c2ccc(Br)cc2)C3=O)cc1 (stereo unspecified)		inactive: 3.64%
Cc1noc(C)c1S(=O)(=O)Nc1ccc(C(C)C)cc1		inactive: 8.63% [at 102 µM]
O=C(Nc1c2c(nn1-c1cccc(Cl)c1)CS(=O)(=O)C2)C1CC1		inactive: -27.4% [at 102 µM]
O=C(NCCCN1CCN(c2ccc(F)cc2)CC1)C1CCCN(c2ncnc3c2nc2n3CCCCC2)C1 (stereo unspecified)	inconclusive: 89.1 µM [inhibitor, single point]	
CC(C)(C)NS(=O)(=O)c1ccc2[nH]c3c(c2c1)CCCCC3	active: 70.8 µM	
S=C(NN=C1CCCCCC1)Nc1ccc(Cl)cc1	active: 28.2 µM	
COc1ccc2c(c1)CC(C(=O)N1CCC(C(N)=O)CC1)CO2 (stereo unspecified)		inactive: 10.6%
COC(=O)c1cc2oc(C)cc2n1Cc1c(C)cc(C)cc1C	active: 3.98 µM	
CCOC(=O)/C(=N\Nc1cccc(C(F)(F)F)c1)N(CCOC)CCOC	inconclusive: 31.6 µM [inhibitor, single point]	
CCN(CC)c1ccc(NS(=O)(=O)c2ccc3c(c2)CCCN3C(C)=O)c(C)c1	active: 11.2 µM	
O=C(COc1cc2oc(=O)c3c(c2cc1Cl)CCCC3)N1C[C@H]2C[C@@H](C1)c1cccc(=O)n1C2		inactive: -17.8% [at 102 µM]
CC1=C/C(=N\Nc2ccccc2[N+](=O)[O-])CC(C)(C)C1	active: 3.55 µM	
CC(=O)Nc1ccc(NC(=O)CSC2=NS(=O)(=O)c3ccccc3N2)cc1	inconclusive: 10 µM [inhibitor, partial curve, poor fit]	
Cc1ncc([N+](=O)[O-])n1CC(=O)Nc1ccc(Br)cc1		inactive: 50.4% [at 102 µM]
COc1cc2c(=O)n(Cc3ccccc3)c(=O)n(CC(=O)Nc3cc(C(F)(F)F)ccc3Cl)c2cc1OC		inactive: 27.6%
C#CCOCCOCCOCCNc1nc(N2CCN(C(=O)[C@H](CCCCN)n3cc([C@@H](N)C(C)CC)nn3)CC2)nc(N2CCN(C(=O)[C@H](Cc3ccc(O)cc3)n3cc([C@@H](N)C(C)CC)nn3)CC2)n1 (stereo partly specified)		inconclusive: -87.5% [inhibitor]
CC(c1ccccc1)N1CCn2c(nc3cc(NS(C)(=O)=O)ccc32)C1 (stereo unspecified)	inconclusive: 44.7 µM [inhibitor, partial curve, poor fit]	
Cc1ccc(OCCC(=O)N(Cc2ccccc2)c2c(N)n(Cc3ccccc3)c(=O)[nH]c2=O)cc1	inconclusive: 56.2 µM [inhibitor, partial curve, poor fit]	
Cc1ccc(OC(=O)c2snnc2C)cc1C	inconclusive: 10 µM [inhibitor, partial curve, poor fit]	
CCOC(=O)C(C)Sc1nc(-c2cccs2)ccc1C#N (stereo unspecified)	inconclusive: 0.708 µM [inhibitor, full curve, poor fit]	
O=C(Cc1c(F)cccc1Cl)NNC(=O)Nc1ccc2c(c1)OCO2		inactive: -2.17% [at 102 µM]

SMILES	Potency	activity, negative = inhibition
N#CC(Sc1ccccn1)c1ccc(Cl)cc1 (stereo unspecified)	active: 7.94 µM	
O=C(NCCOc1ccccc1)C1CCCCC1		inactive: -0.418% [at 102 µM]
Cc1ccc(/C=C/C(=O)OCC(=O)Nc2ccc3[nH]c(=O)[nH]c3c2)o1	active: 39.8 µM	
CCc1cc(=O)oc2cc(OC(C)=O)cc(OC(C)=O)c12	inconclusive: 8.91 µM [inhibitor, single point]	
CCN(CC)c1ccc(S(=O)(=O)N2CCOCC2)cc1NC(=O)CN1CCN(Cc2ccccc2)CC1	inconclusive: 3.98 µM [inhibitor, single point]	
COc1cccc(-c2ocnc2C(=O)Nc2ccc(N3CCOCC3)cc2N2CCOCC2)c1	active: 35.5 µM	
Cc1nn(-c2ccccc2)c(C)c1NC(=O)c1cccs1	inconclusive: 79.4 µM [inhibitor, single point]	
O=c1cc2c(nn1Cc1cccc([N+](=O)[O-])c1)-c1ccccc1CC2	inconclusive: 44.7 µM [inhibitor, partial curve]	
CCOc1cc(C(=O)OC(C)C(=O)Nc2ccc(NC(C)=O)cc2)ccc1OCC(=O)N1CCCCC1 (stereo unspecified)		inactive: -3.43% [at 102 µM]
COc1ccc(OCC(=O)Nc2cc(-c3cccc(Cl)c3)nn2-c2ccccc2)cc1		inactive: 6.32%
CCOC(=O)C1CCN(C(=O)C2c3ccccc3C(=O)N(C)C2c2ccc(OC)cc2)CC1 (stereo unspecified)	inconclusive: 15.8 µM [inhibitor, partial curve, poor fit]	
CCCCNC(=S)NCc1ccc2[nH]c3c(c2c1)CCCC3	inconclusive: 31.6 µM [inhibitor, full curve]	
Cn1c(=O)c2c(nc(SCCCC#N)n2Cc2c(F)cccc2Cl)n(C)c1=O	inconclusive: 39.8 µM [inhibitor, single point]	
CN(C)S(=O)(=O)c1cc(NC(=O)CNCc2ccc(F)cc2)ccc1Cl	active: 3.55 µM	
NC(=O)CC1Nc2cccc3cccc(c23)NC1=O (stereo unspecified)		inactive: 6.35%
CCN(CC)c1ccc(CNCc2cccs2)cc1		inconclusive: -87.1% [inhibitor]
CCN(CC)S(=O)(=O)c1ccc(N2CCCC2)c(NC(=O)C2CSC3(C)CCC(=O)N23)c1 (stereo unspecified)	inconclusive: 89.1 µM [inhibitor, single point]	
COc1ccccc1N1CCN(S(=O)(=O)c2c[nH]c(=O)[nH]c2=O)CC1	active: 20 µM	
Cc1cc(C)c(C)c(S(=O)(=O)N2CCN(C(=S)NCC3CCCO3)CC2)c1C (stereo unspecified)		inactive: 5.28% [at 102 µM]
O=C(Cn1cnc2ccccc2c1=O)Nc1ccc(-c2nnc3n2CCCCC3)cc1	inconclusive: 89.1 µM [inhibitor, single point]	
CCN(CC)S(=O)(=O)c1ccc(/C=C/C(=O)OCC(=O)Nc2ccc(S(N)(=O)=O)cc2)cc1		inactive: 27.6%
O=C(O)c1cc(-c2cccc3ccccc23)nc2ccccc12	inconclusive: 79.4 µM [inhibitor, single point]	
CSCCC(NC(=O)c1cc([N+](=O)[O-])cc([N+](=O)[O-])c1)c1nc2ccccc2[nH]1 (stereo unspecified)	inconclusive: 28.2 µM [inhibitor, single point]	
